# “And” between values parts separate entries of the source, which are not always exact repeats. Equal values may be shown once. The shares of active, inactive and inconclusive entries below differ from those in the screen. For part of these data: Potencies of inconclusive entries are doubtful fits and often do not repeat. The source made the active and inactive calls. Unless noted, calls come from the whole dose curve; as a rule, active = well fitted curve in the direction sought with a large enough effect; inconclusive = small, poorly fitted or top-dose-only effect, or another doubt; inactive = no such curve, though single readings can be large; an effect the other way counts as inactive or inconclusive.
# Legend:
# [1] = Primary qHTS for inhibitors of nuclear receptor binding SET domain protein 2 (NSD2) in an isogenic RCH-ACV NSD2 p.E1099K mutant (9B) (AID 1645876); note: nearly all actives have a fitted effect of over 70% in size
# [2] = Primary qHTS for inhibitors of nuclear receptor binding SET domain protein 2 (NSD2) in an RCH-ACV wild type WT cells (2C) (AID 1645877); note: nearly all actives have a fitted effect of over 70% in size
# [3] = target: Glutathione peroxidase 1 (Homo sapiens) (UniProt P07203); assay: Primary qHTS Assay for Inhibitors of Recombinant Selenoprotein Glutathione Peroxidase 1 (GPX1) (AID 1845191); note: nearly all actives have a fitted effect of over 65% in size
# Chain of UniProt P07203 (P07203 whole entry, looked up): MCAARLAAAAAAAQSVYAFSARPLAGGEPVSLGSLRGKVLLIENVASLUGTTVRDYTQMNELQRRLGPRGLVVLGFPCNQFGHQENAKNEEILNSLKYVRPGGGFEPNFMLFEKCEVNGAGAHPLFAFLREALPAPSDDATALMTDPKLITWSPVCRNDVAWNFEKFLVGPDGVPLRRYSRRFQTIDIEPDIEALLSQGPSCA
# How it was run: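 Recombinant GPX1 (10 nM final) was preincubated with compound for 30 min at room temperature, then reacted with 1 mM GSH, 0.5 mM CHP, 0.5 mM NADPH and 100 nM glutathione reductase; NADPH fluorescence (340/450 nm) was read at 0 and 15 min.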
# [4] = target: Luciferin 4-monooxygenase (Photinus pyralis) (UniProt P08659); assay: Primary firefly luciferase (FLuc) qHTS assay for identification of artifact compounds. (AID 1845220); note: nearly all actives have a fitted effect of over 60% in size
# How it was run: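 qHTS, 15 min compound preincubation with substrate (10 uM luciferin, 10 uM ATP) at RT, then 10 nM FLuc; 5 min; luminescence; % inhibition vs no-enzyme/DMSO controls, 4-parameter Hill fit.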
# [5] = target: Phospholipid hydroperoxide glutathione peroxidase GPX4 (Homo sapiens) (UniProt P36969); assay: Primary qHTS Assay for Inhibitors of Recombinant Selenoprotein Glutathione Peroxidase 4 (GPX4) (AID 1845192); note: nearly all actives have a fitted effect of over 65% in size
# Chain of UniProt P36969 (P36969 whole entry, looked up): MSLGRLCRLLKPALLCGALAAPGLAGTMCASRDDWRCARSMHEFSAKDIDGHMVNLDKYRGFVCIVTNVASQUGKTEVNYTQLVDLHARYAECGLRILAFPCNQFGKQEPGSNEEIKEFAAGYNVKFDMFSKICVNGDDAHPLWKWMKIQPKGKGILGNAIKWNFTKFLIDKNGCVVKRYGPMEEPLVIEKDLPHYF
# How it was run: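 GR-coupled readout: 100 nM GR, 1 mM GSH, 0.5 mM NADPH; NADPH fluorescence (ex 340/em 450 nm) read at t=0 and after 15 min RT. GPX4 200 nM, preincubated 30 min with compound; substrate 0.5 mM CHP.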
# [6] = Primary fluorescence-based thiol-reactive (MSTI) qHTS assay for identification of artifact compounds. (AID 1845221);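 note: thiol-reactive compounds lower the probe fluorescence signal; nearly all actives have a fitted effect of over 65% in size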
# How it was run: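 A multi-concentration qHTS design tested compounds against 4 uM MSTI, pH 7.4 phosphate-buffered saline. Plates were protected from light for 1 h at room temperature before imaging fluorescence.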
# [7] = NCATS anti-infectives library activity on the primary C. elegans qHTS viability assay (AID 1745855; calls by dose curve)
# How it was run: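 Viability read-out is GFP fluorescence of PE254-GFP-FLuc C. elegans, measured by laser cytometry (488 nm) at day 0, 3 and 7. Ten L1 worms per well were incubated 7 days at 21 °C with compounds and bacterial capsules in S medium.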
# Potency is the fitted concentration of half-maximal effect; tags give direction and shape of the fitted curve.
structure (smiles),measurement,setting,value
C=CC(=O)NCNC(=O)C=C,Potency,[1],"inconclusive: 21.7 µM [inhibitor, partial curve]"
same,Potency,[2],"inconclusive: 43.3 µM [inhibitor, single point]"
CC1N=C(N)OC1c1ccccc1 (configuration not stated),Potency,[1],"inconclusive: 67.2 µM [inhibitor, single point]"
same,Potency,[2],"inconclusive: 47.6 µM [inhibitor, single point]"
COc1cc(CCN)cc(OC)c1OC,Potency,[1],"inconclusive: 83.5 µM [inhibitor, single point]"
same,Potency,[2],active: 41.8 µM
c1ccc2c(c1)Nc1ccccc1S2,Potency,[1],"inconclusive: 38.6 µM [inhibitor, single point]"
same,Potency,[2],"inconclusive: 38.6 µM [inhibitor, partial curve, poor fit] and inactive"
CN1C(=S)CN=C(c2ccccc2)c2cc(Cl)ccc21,Potency,[1],"inconclusive: 10.6 µM [inhibitor, partial curve]"
same,Potency,[2],"inconclusive: 26.6 µM [inhibitor, single point]"
COC(=O)[C@@]1(C)C(=O)C=C[C@]2(C)c3c(O)cc(C(C)C)cc3[C@H](O)[C@@H](OC(C)=O)C12 (some centres not stated),Potency,[1],"inconclusive: 14.2 µM [inhibitor, single point]"
same,Potency,[2],"inconclusive: 11.2 µM [inhibitor, single point]"
CC(C)(C)OC(=O)c1ncn2c1[C@@H]1CCCN1C(=O)c1c(Br)cccc1-2,Potency,[1],"inconclusive: 13.3 µM [inhibitor, partial curve, poor fit]"
same,Potency,[2],"inconclusive: 29.9 µM [inhibitor, partial curve, poor fit]"
CN1CN(c2ccccc2)C2(CCN(CCCC(=O)c3ccc(F)cc3)CC2)C1=O,Potency,[1],active: 23 µM
same,Potency,[2],active: 25.8 µM
c1ccc2nc(N3CCNCC3)ccc2c1,Potency,[1],inactive
same,Potency,[2],inactive
Cc1cccc(NC(=O)N[C@@H]2N=C(c3ccccc3)c3ccccc3N(C)C2=O)c1,Potency,[1],"inconclusive: 18.3 µM [inhibitor, partial curve]"
same,Potency,[2],"inconclusive: 14.5 µM [inhibitor, partial curve]"
C[C@@H](CN1CCC(n2c(=O)[nH]c3cc(Br)ccc32)CC1)NC(=O)[C@@H]1C[C@H]1c1ccccc1,Potency,[1],"inconclusive: 6.49 µM [inhibitor, partial curve]"
same,Potency,[2],"inconclusive: 6.49 µM [inhibitor, partial curve]"
C#C[C@]1(O)CC[C@H]2[C@@H]3CCC4=CC(=O)CC[C@]4(C)[C@H]3CC[C@@]21C,Potency,[1],"inconclusive: 13.3 µM [inhibitor, single point]"
same,Potency,[2],"inconclusive: 21.1 µM [inhibitor, single point]"
CC1COC2(c3ccccc3Cl)c3cc(Cl)ccc3NC(=O)CN12 (configuration not stated),Potency,[1],"inconclusive: 23.7 µM [inhibitor, single point]"
same,Potency,[2],"inconclusive: 29.9 µM [inhibitor, single point]"
CCOC(=O)C1(CCc2ccccc2)CCN(Cc2ccc(NC(C)=O)cc2)CC1,Potency,[1],"inconclusive: 29 µM [inhibitor, single point]"
same,Potency,[2],"inconclusive: 16.3 µM [inhibitor, partial curve]"
COc1cc(N2CCN(C)CC2)ccc1N,Potency,[1],"inconclusive: 29 µM [inhibitor, single point]"
same,Potency,[2],"inconclusive: 14.5 µM [inhibitor, partial curve, poor fit]"
CN1C(=O)[C@@H](Cc2c[nH]c3ccccc23)N=C(c2ccccc2F)c2ccccc21,Potency,[1],"inconclusive: 29 µM [inhibitor, single point]"
same,Potency,[2],"inconclusive: 29 µM [inhibitor, single point]"
CN1[C@H]2CC(O)C[C@H]1[C@H]1O[C@H]12 (some centres not stated),Potency,[1],inactive
same,Potency,[2],inactive
O=[N+]([O-])c1c2ccccc2cc2ccccc12,Potency,[1],"inconclusive: 34 µM [inhibitor, partial curve, poor fit]"
same,Potency,[2],inactive
Nc1ccc(Cl)cc1,Potency,[1],inactive
same,Potency,[2],inactive
COc1cc(C[C@@H](C)N)c(OC)cc1Br,Potency,[1],"inconclusive: 39.7 µM [inhibitor, single point]"
same,Potency,[2],"inconclusive: 35.4 µM [inhibitor, single point]"
COC(=O)C12C(=O)C(C)(O)C(=O)C1(C)C(C)=CC1C3(C=O)CCC(OC(C)=O)C(C)(C)C3CCC12C (configuration not stated),Potency,[1],"inconclusive: 11.2 µM [inhibitor, single point]"
same,Potency,[2],"inconclusive: 15.9 µM [inhibitor, single point]"
C/C=C(\C)C(=O)OC1CC2C(CC=C3CC(OC4CC(OC)C(OC5CC(OC)C(OC6CC(OC)C(OC7CC(OC)C(O)C(C)O7)C(C)O6)C(C)O5)C(C)O4)CCC32C)C2(O)CCC(C(C)=O)C12C (configuration not stated),Potency,[1],"inconclusive: 6.9 µM [inhibitor, partial curve, poor fit]"
same,Potency,[2],"inconclusive: 6.15 µM [inhibitor, single point]"
CNC(=O)c1ccc(N2C(=S)N(c3ccc(C#N)c(C(F)(F)F)c3)C(=O)C23CCC3)cc1F,Potency,[1],"inconclusive: 29 µM [inhibitor, single point] and inconclusive: 26.3 µM [inhibitor, single point]"
same,Potency,[2],"inconclusive: 29 µM [inhibitor, single point]"
Cc1ccccc1-n1c(Cn2cnc3c(N)ncnc32)nc2cccc(C)c2c1=O,Potency,[1],"inconclusive: 1.32 µM [inhibitor, full curve]"
same,Potency,[2],"inconclusive: 2.95 µM [inhibitor, full curve]"
Cc1cccc(NC(=O)NC2N=C(c3ccccc3)c3ccccc3N(CC(=O)c3ccccc3C)C2=O)c1 (configuration not stated),Potency,[1],"inconclusive: 6.49 µM [inhibitor, partial curve]"
same,Potency,[2],"inconclusive: 2.9 µM [inhibitor, full curve, poor fit]"
CNC(=O)NC(O)C(Cl)(Cl)Cl (configuration not stated),Potency,[1],"inconclusive: 33.5 µM [inhibitor, single point]"
same,Potency,[2],"inconclusive: 33.5 µM [inhibitor, single point]"
c1cc2c(c(N3CCNCC3)c1)OCCO2,Potency,[1],"inconclusive: 29.9 µM [inhibitor, single point]"
same,Potency,[2],"inconclusive: 23.7 µM [inhibitor, single point]"
COc1ccccc1N1CCNCC1,Potency,[1],"inconclusive: 21.1 µM [inhibitor, single point]"
same,Potency,[2],"inconclusive: 29.9 µM [inhibitor, single point]"
C[C@]12CC[C@@H](O)C[C@H]1CC[C@@H]1[C@@H]2CC[C@]2(C)C(=O)CC[C@@H]12,Potency,[1],"inconclusive: 20.5 µM [inhibitor, partial curve, poor fit]"
same,Potency,[2],"inconclusive: 18.3 µM [inhibitor, single point]"
N#Cc1ccc(N2CCN(C(=O)COc3ccc4[nH]cc(CCN)c4c3)CC2)cc1,Potency,[1],"inconclusive: 20.5 µM [inhibitor, partial curve]"
same,Potency,[2],"inconclusive: 7.28 µM [inhibitor, partial curve]"
COc1ccc(C23CCC(=O)C=C2N(C)CC3)cc1OC (configuration not stated),Potency,[1],inactive
same,Potency,[2],inactive
O=C(N[C@@H]1N=C(c2ccccc2F)c2cccc3c2N(CC3)C1=O)c1cc2ccccc2[nH]1,Potency,[1],"inconclusive: 6.08 µM [inhibitor, partial curve, poor fit]"
same,Potency,[2],"inconclusive: 33.5 µM [inhibitor, single point]"
same,Potency,[3],"inconclusive: 2.14 µM [inhibitor, partial curve, poor fit]"
same,Potency,[4],"inconclusive: 5 µM [inhibitor, partial curve, poor fit]"
COc1ccc2c(c1)c(CCN(C)C)cn2S(=O)(=O)c1ccccc1,Potency,[1],"inconclusive: 18.3 µM [inhibitor, single point]"
same,Potency,[2],"inconclusive: 20.5 µM [inhibitor, partial curve]"
same,Potency,[5],inactive
same,Potency,[6],inactive
CN=C(NS(=O)(=O)c1ccc(Cl)cc1)N1C[C@H](c2ccccc2)C(c2ccc(Cl)cc2)=N1,Potency,[1],"inconclusive: 29 µM [inhibitor, single point]"
same,Potency,[2],"inconclusive: 18.3 µM [inhibitor, single point]"
same,Potency,[3],"inconclusive: 11.4 µM [inhibitor, partial curve]"
COc1ccc(N(C(=O)Oc2c(C)cccc2C)c2ccnc(Nc3ccc(N4CCN(C)CC4)cc3)n2)c(OC)c1,Potency,[1],"inconclusive: 817 nM [inhibitor, full curve] and active: 4.68 µM"
same,Potency,[2],"inconclusive: 1.15 µM [inhibitor, full curve]"
same,Potency,[6],"inconclusive: 0.844 µM [inhibitor, full curve, poor fit]"
CCCCCC[C@H]1C(=O)O[C@H](C)[C@H](NC(=O)c2cccc(NC=O)c2O)C(=O)O[C@@H](C)[C@@H]1OC(=O)CC(C)C,Potency,[1],"inconclusive: 0.417 µM [inhibitor, full curve]"
same,Potency,[2],"inconclusive: 0.468 µM [inhibitor, full curve, poor fit]"
same,Potency,[7],active: 7.27 µM
same,Potency,[5],"inconclusive: 25.5 µM [inhibitor, single point]"
C=C1CC[C@H]2[C@@H](/C=C(\C)C(=O)[C@@]3(OC(C)=O)C[C@H](C)[C@H](OC(=O)c4ccccc4)[C@@H]3[C@H]1OC(C)=O)C2(C)C,Potency,[1],"inconclusive: 8.93 µM [inhibitor, partial curve, poor fit]"
same,Potency,[2],"inconclusive: 7.96 µM [inhibitor, partial curve, poor fit]"
same,Potency,[6],inactive
OC(CNc1ccccc1)Cn1c2ccc(Br)cc2c2cc(Br)ccc21 (configuration not stated),Potency,[1],"inconclusive: 23 µM [inhibitor, single point]"
same,Potency,[2],"inconclusive: 18.3 µM [inhibitor, single point]"
same,Potency,[3],inactive
same,Potency,[6],"inconclusive: 0.947 µM [inhibitor, partial curve, poor fit]"
